Measured values published in the supplement of paper PMC4967469.

Legend:
Test in all cases: Viability of human cancer cell lines after 72 h of drug (GDSC screen)
Tubastatin A = compound: CN1CCc2c(c3ccccc3n2Cc2ccc(C(=O)NO)cc2)C1 [Tubastatin A]; settings: top dose 20 µM
Protocol: (§1)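 Human cancer cell lines in 384-well plates, medium with 10% serum, drug for 72 h over a 256-fold dose range (nine 2-fold or five 4-fold steps up to the top dose). Adherent lines were fixed and stained with the nucleic acid dye Syto60, suspension lines read with resazurin; signal relative to control wells, capped at 0 and 100%. One two-parameter sigmoid per drug and line, fitted in a mixed model over all curves with the slope shared within a line.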

CI-1040 = compound: O=C(NOCC1CC1)c1ccc(F)c(F)c1Nc1ccc(I)cc1Cl [CI-1040]; settings: top dose 10 µM; top dose inferred
Protocol: as §1

IPA-3 = compound: Oc1ccc2ccccc2c1SSc1c(O)ccc2ccccc12 [IPA-3]; settings: top dose 32 µM; top dose inferred
Protocol: as §1

XL-880 = compound: COc1cc2c(Oc3ccc(NC(=O)C4(C(=O)Nc5ccc(F)cc5)CC4)cc3F)ccnc2cc1OCCCN1CCOCC1 [XL-880]; settings: top dose 5.12 µM; top dose inferred
Protocol: as §1

ZG-10 = compound: CN(C)C/C=C/C(=O)Nc1ccc(C(=O)Nc2cccc(Nc3nccc(-c4cccnc4)n3)c2)cc1 [ZG-10]; settings: top dose 10 µM; top dose inferred
Protocol: as §1

Temozolomide = compound: Cn1nnc2c(C(N)=O)ncn2c1=O [Temozolomide]; settings: top dose 30 µM
Protocol: as §1

Row | Cell Line | AUC (Tubastatin A) | IC50 (Tubastatin A) [µM] | AUC (CI-1040) | IC50 (CI-1040) [µM] | AUC (IPA-3) | IC50 (IPA-3) [µM] | AUC (XL-880) | IC50 (XL-880) [nM] | AUC (ZG-10) | IC50 (ZG-10) [µM] | AUC (Temozolomide) | IC50 (Temozolomide) [µM]
1 | AGS (stomach, adherent) | 0.989 | > 20 | 0.594 | 1.1 | 0.806 | 14.3 | 0.719 | 1230 | 0.643 | 1.48 | – | –
2 | C-4-I (cervix, adherent) | 0.986 | > 20 | 0.812 | 5.91 | 0.959 | > 32 | 0.748 | 1780 | 0.926 | > 10 | – | –
3 | RCC-JW (kidney, adherent) | 0.979 | > 20 | 0.89 | > 10 | – | – | 0.685 | 1070 | 0.663 | 1.79 | 0.984 | > 30
4 | KYSE-410 (oesophagus, adherent) | 0.979 | > 20 | 0.667 | 1.88 | 0.872 | > 32 | 0.742 | 1660 | 0.779 | 4.35 | – | –
5 | UWB1.289 (ovary, adherent) | 0.949 | > 20 | 0.91 | > 10 | – | – | 0.683 | 1360 | 0.755 | 5.08 | 0.977 | > 30
6 | SK-N-SH (neuroblastoma, adherent) | 0.935 | > 20 | 0.881 | > 10 | 0.856 | 25.5 | 0.636 | 758 | 0.958 | > 10 | – | –
7 | OVK-18 (ovary, adherent) | 0.98 | > 20 | 0.651 | 1.72 | – | – | 0.864 | > 5120 | 0.754 | 3.69 | 0.977 | > 30
8 | SK-MEL-5 (melanoma, adherent) | 0.977 | > 20 | 0.557 | 0.924 | – | – | 0.867 | > 5120 | 0.835 | 8.78 | 0.975 | > 30
9 | SK-GT-4 (oesophagus, adherent) | 0.965 | > 20 | 0.626 | 1.51 | – | – | 0.637 | 839 | 0.856 | > 10 | 0.966 | > 30
10 | NCI-H460 (large cell lung carcinoma, adherent) | 0.99 | > 20 | 0.648 | 1.54 | 0.987 | > 32 | – | – | 0.985 | > 10 | – | –
11 | KYSE-140 (oesophagus, adherent) | 0.983 | > 20 | 0.892 | > 10 | 0.766 | 13.3 | 0.631 | 774 | 0.712 | 2.71 | – | –
12 | PEO1 (ovary, adherent) | 0.978 | > 20 | 0.91 | > 10 | – | – | 0.636 | 771 | 0.613 | 1.29 | 0.985 | > 30
13 | QGP-1 (pancreas, adherent) | 0.848 | > 20 | 0.932 | > 10 | – | – | 0.642 | 1010 | 0.829 | > 10 | 0.977 | > 30
14 | JHOS-3 (ovary, adherent) | 0.981 | > 20 | 0.834 | 9.18 | – | – | 0.718 | 1600 | 0.807 | 6.91 | 0.981 | > 30
15 | PFSK-1 (medulloblastoma, adherent) | 0.96 | > 20 | 0.931 | > 10 | 0.974 | > 32 | 0.731 | 1530 | 0.552 | 0.876 | – | –
16 | SNU-C5 (large intestine, adherent) | 0.986 | > 20 | 0.812 | 6.01 | – | – | 0.73 | 1560 | 0.756 | 3.74 | 0.984 | > 30
17 | FLO-1 (oesophagus, adherent) | 0.957 | > 20 | 0.899 | > 10 | – | – | 0.563 | 514 | 0.551 | 0.916 | 0.972 | > 30
18 | HuP-T4 (pancreas, adherent) | 0.874 | > 20 | 0.568 | 0.971 | 0.872 | > 32 | 0.563 | 481 | 0.705 | 2.46 | – | –
19 | RCC-ER (kidney, adherent) | 0.982 | > 20 | 0.845 | 8.53 | – | – | 0.768 | 2140 | 0.75 | 3.62 | 0.984 | > 30
20 | OVCA433 (ovary, adherent) | 0.985 | > 20 | 0.795 | 5.22 | – | – | 0.668 | 996 | 0.699 | 2.43 | 0.975 | > 30
21 | RPMI-7951 (melanoma, adherent) | 0.9 | > 20 | 0.795 | 4.49 | 0.804 | 15.4 | 0.54 | 410 | 0.83 | 6 | – | –

Row | Cell Line | AUC (Tubastatin A) | IC50 (Tubastatin A) [µM] | AUC (CI-1040) | IC50 (CI-1040) [µM] | AUC (IPA-3) | IC50 (IPA-3) [µM] | AUC (XL-880) | IC50 (XL-880) [nM] | AUC (ZG-10) | IC50 (ZG-10) [µM] | AUC (Temozolomide) | IC50 (Temozolomide) [µM]
22 | NCI-H630 (large intestine, adherent) | 0.966 | > 20 | 0.883 | > 10 | – | – | 0.819 | 3180 | 0.957 | > 10 | 0.987 | > 30
23 | HCC2998 (large intestine, adherent) | 0.981 | > 20 | 0.6 | 1.17 | 0.893 | > 32 | 0.845 | 3560 | 0.602 | 1.18 | – | –
24 | OV-17R (ovary, adherent) | 0.903 | > 20 | 0.952 | > 10 | – | – | 0.632 | 856 | 0.941 | > 10 | 0.97 | > 30
25 | CAPAN-1 (pancreas, adherent) | 0.985 | > 20 | 0.827 | 7.06 | 0.973 | > 32 | 0.737 | 1660 | 0.896 | > 10 | – | –
26 | EMC-BAC-2 (lung adenocarcinoma, adherent) | 0.936 | > 20 | 0.849 | 9.71 | – | – | 0.61 | 679 | 0.58 | 1.08 | 0.97 | > 30
27 | OV-7 (ovary, adherent) | 0.951 | > 20 | 0.735 | 4.24 | – | – | 0.541 | 437 | 0.77 | 5.94 | 0.919 | > 30
28 | AU565 (breast, adherent) | 0.962 | > 20 | 0.911 | > 10 | 0.79 | 16 | 0.864 | > 5120 | 0.726 | 2.97 | – | –
29 | A2058 (melanoma, adherent) | 0.99 | > 20 | 0.803 | 4.34 | 0.736 | 8.64 | 0.784 | 1920 | 0.744 | 2.83 | – | –
30 | KMRC-20 (kidney, adherent) | 0.986 | > 20 | 0.849 | 7.68 | – | – | 0.78 | 2140 | 0.9 | > 10 | 0.987 | > 30
31 | SNU-407 (large intestine, adherent) | 0.978 | > 20 | 0.726 | 3.1 | – | – | 0.61 | 678 | 0.72 | 2.94 | 0.975 | > 30
32 | IGR-1 (melanoma, adherent) | 0.887 | 17.6 | 0.932 | > 10 | 0.836 | 17.7 | 0.594 | 559 | 0.705 | 2.17 | – | –
33 | KYAE-1 (oesophagus, suspension) | 0.944 | > 20 | 0.804 | 5.63 | – | – | 0.65 | 874 | 0.845 | 8.41 | 0.967 | > 30
34 | RCC-JF (kidney, adherent) | 0.948 | > 20 | 0.625 | 1.45 | – | – | 0.638 | 813 | 0.694 | 2.37 | 0.94 | > 30
35 | OVCA420 (ovary, adherent) | 0.718 | 6.46 | 0.855 | > 10 | – | – | 0.745 | 2090 | 0.968 | > 10 | 0.927 | > 30
36 | FADU (head and neck, adherent) | 0.987 | > 20 | 0.77 | 3.66 | 0.978 | > 32 | 0.813 | 2650 | 0.437 | 0.424 | – | –
37 | OACp4C (oesophagus, adherent) | 0.884 | > 20 | 0.802 | 6.12 | – | – | 0.505 | 331 | 0.775 | 4.79 | 0.965 | > 30
38 | SK-MG-1 (glioma, adherent) | 0.986 | > 20 | 0.92 | > 10 | – | – | 0.704 | 1210 | 0.576 | 1.01 | 0.981 | > 30
39 | D-423MG (glioma, adherent) | 0.981 | > 20 | 0.705 | 2.72 | – | – | 0.6 | 639 | 0.724 | 3.16 | 0.865 | > 30
40 | NCC021 (kidney, adherent) | 0.962 | > 20 | 0.927 | > 10 | – | – | 0.57 | 513 | 0.916 | > 10 | 0.983 | > 30
41 | RCC-FG2 (kidney, adherent) | 0.975 | > 20 | 0.867 | > 10 | – | – | 0.618 | 740 | 0.801 | 6.53 | 0.975 | > 30
42 | Hey (ovary, adherent) | 0.924 | > 20 | 0.716 | 2.45 | – | – | 0.646 | 793 | 0.681 | 1.94 | 0.97 | > 30

Lines with a small IC50 respond at low doses; fits outside the tested doses are given as limits. AUC, from the same fit, is the share of area under the viability curve across the 256-fold dose range; it is 1 without any effect and falls as sensitivity rises. For some of these results: Where the top dose is marked as inferred, it was calculated from the reported fits.
